From the supplement of paper PMC4604168 (melanoma cell lines) come the findings set out here.

Among the test systems are SkMel30; SkMel5; UACC257; UACC62; WM115; WM1716; WM1745; WM3526; WM3619; WM451Lu.
What all share (assay): cell count relative to DMSO control; melanoma cells; higher = more viable cells
Common to all, as to details: library dose: standard library concentration; 72 h

The structures appear in SMILES notation. Some of the results follow. Most values come without repeats; read them as rough.
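Further: cells treated in 1,536-well plates, then fixed and DAPI-stained, with nuclei counted from automated high-throughput microscope images.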

In the case of `COc1cc2ncnc(Nc3ccc(Oc4ccccc4)cc3)c2cc1OC` + CC(C)CCN1c2nc(Nc3cc(F)c(O)c(F)c3)ncc2N(C)C(=O)C1C [BID1870] (first compound 10 µM, partner dose 1 µM), the cell count with SkMel30 is 80%; in the assay on SkMel5 it was 69.8%; in the assay with UACC257, 84.2%; in the assay with UACC62 it was 67.3%; in the assay with WM115 it was 53%; in the assay with WM1716, 54.6%. The cell count with WM1745 is 54%; in the assay with WM3526, 54.7%; with WM3619, 61%; with WM451Lu, 60.8%.
Consider `COc1cc2ncnc(Nc3ccc(Oc4ccccc4)cc3)c2cc1OC` + O=c1cc(-c2cccc3c2Sc2ccccc2S3)oc(N2CCOCC2)c1 [KU55933] (first compound 10 µM, partner dose 5 µM), for which the cell count in the assay on SkMel30 came out at 84.4%; in the assay on SkMel5 it was 71.5%; in the assay with UACC257 it was 83.9%; in the assay on UACC62 it was 87.4%; in the assay with WM115 it was 65.1%; in the assay on WM1716, 82.7%. Further, the cell count in the assay with WM1745 came to 75%; with WM3526, 51.6%; with WM3619 it was 79.8%; in the assay with WM451Lu it was 76.4%.
As to `O=C1NC(=O)/C(=C/c2ccc(-c3ccc(F)cc3O)o2)S1` + CC(C)CCN1c2nc(Nc3cc(F)c(O)c(F)c3)ncc2N(C)C(=O)C1C [BID1870] (first compound 5 µM, partner dose 1 µM), the cell count was 75.7% in the assay on SkMel30; 59.9% with SkMel5; 76.4% with UACC257; 53.8% with UACC62; 94% in the assay on WM115; 84.5% in the assay with WM1716. Moreover, the cell count with WM1745 was 78.1%; with WM3526, 60.5%; with WM3619 it was 67.9%; in the assay with WM451Lu it was 85.2%.
`COC(=O)c1sccc1S(=O)(=O)Nc1ccc(Nc2ccccc2)cc1OC` + COc1cc2ncnc(Nc3ccc(Oc4ccccc4)cc3)c2cc1OC [SrcI1] (first compound 5 µM, partner dose 10 µM): the cell count in the assay on SkMel30 is 95.1%; in the assay on SkMel5, 57.7%; in the assay on UACC257 it was 78%; with UACC62, 84.9%; in the assay on WM115, 82.1%; in the assay on WM1716 it was 70.7%. Moreover, the cell count in the assay with WM1745 is 63.9%; in the assay with WM3526, 55.6%; in the assay on WM3619, 69.7%; in the assay on WM451Lu, 74.1%.
As for `Cn1cc(/C=C2\C(=O)Nc3cccnc32)c2ccccc21` + O=c1cc(-c2cccc3c2Sc2ccccc2S3)oc(N2CCOCC2)c1 [KU55933] (first compound 2 µM, partner dose 5 µM), the cell count with SkMel30 worked out at 97.4%; in the assay with SkMel5, 77.3%; with UACC257, 70.4%; with UACC62, 110%; with WM115 it was 88.9%; in the assay on WM1716, 104%. For the same compound, the cell count stood at 73.8% in the assay on WM1745, 86.2% in the assay with WM3526, 89.1% in the assay with WM3619 and 87.4% with WM451Lu.
For `COc1ccc(-c2ccc3c(N4CCOCC4)nc(N4C[C@@H](C)O[C@@H](C)C4)nc3n2)cc1CO` + Oc1nc(-c2ccc(C(F)(F)F)cc2)nc2c1CSCC2 [XAV939] (first compound 0.1 µM, partner dose 10 µM), the cell count with SkMel30 was found to be 94.4%; in the assay with SkMel5, 65.8%; in the assay on UACC257, 85.9%; with UACC62 it was 97.2%; with WM115, 63%; in the assay with WM1716, 82.1%. Moreover, the cell count with WM1745 is 69.4%; in the assay on WM3526, 81.2%; with WM3619 it was 59.8%; with WM451Lu it was 100%.
As for `Cc1cc([N+](=O)[O-])ccc1NS(=O)(=O)c1cc(Cl)ccc1Cl` + Cn1cc(/C=C2\C(=O)Nc3cccnc32)c2ccccc21 [GW441756] (first compound 5 µM, partner dose 2 µM), the cell count amounted to 77.4% with SkMel30; 51.6% in the assay with SkMel5; 69.2% in the assay on UACC257; 83.8% in the assay on UACC62; 76.9% in the assay with WM115; 85.1% with WM1716. The cell count turned out to be 65.9% with WM1745, 73.4% in the assay with WM3526, 75.3% in the assay on WM3619 and 99.7% in the assay with WM451Lu.
As to `COc1ccc(-c2ccc3c(N4CCOCC4)nc(N4C[C@@H](C)O[C@@H](C)C4)nc3n2)cc1CO` + c1cc(-c2cnn3cc(-c4ccc(OCCN5CCCCC5)cc4)cnc23)ccn1 [Dorsomorphin] (first compound 0.1 µM, partner dose 2 µM), the cell count in the assay on SkMel30 was determined as 75.3%; with SkMel5 it was 55.4%; in the assay with UACC257 it was 79.1%; in the assay on UACC62, 85.7%; in the assay on WM115 it was 72.1%; in the assay with WM1716, 59.3%. Further, the cell count was 67.5% in the assay on WM1745, 75.2% with WM3526, 86.9% with WM3619 and 70.9% with WM451Lu.
`COc1ccc(COc2ccc(Cc3cnc(N)nc3N)cc2OC)cc1` + Cc1cc([N+](=O)[O-])ccc1NS(=O)(=O)c1cc(Cl)ccc1Cl [FH535] (first compound 5 µM, partner dose 5 µM): the cell count stood at 83.3% in the assay with SkMel30; 61.2% with SkMel5; 56.6% in the assay on UACC257; 91.5% in the assay on UACC62; 70.2% with WM115; 69.6% with WM1716. In addition, the cell count was 71.9% in the assay on WM1745, 60.2% with WM3526, 76.3% in the assay with WM3619 and 81.2% in the assay on WM451Lu.
Take `COc1ccc2c(c1)CCC1C2CCC2(C)C(NCCCCCCN3C(=O)C=CC3=O)CCC12` (stereo not given) + CC(C)CCN1c2nc(Nc3cc(F)c(O)c(F)c3)ncc2N(C)C(=O)C1C [BID1870] (first compound 2 µM, partner dose 1 µM): the cell count with SkMel30 was found to be 70.5%; in the assay on SkMel5, 67%; in the assay with UACC257 it was 86.8%; with UACC62, 81.8%; with WM115 it was 72.5%; with WM1716, 70.3%. Also, the cell count in the assay with WM1745 turned out to be 99%; with WM3526, 67.7%; in the assay on WM3619, 68.9%; with WM451Lu, 93.3%.
Consider `CCN(CC)CCCCNc1ncc2cc(-c3cc(OC)cc(OC)c3)c(NC(=O)NC(C)(C)C)nc2n1` + O=c1cc(-c2cccc3c2Sc2ccccc2S3)oc(N2CCOCC2)c1 [KU55933] (first compound 0.5 µM, partner dose 5 µM), for which the cell count worked out at 109% in the assay with SkMel30; 104% in the assay on SkMel5; 121% in the assay on UACC257; 114% in the assay with UACC62; 90.4% in the assay on WM115; 92.4% in the assay on WM1716. Besides, the cell count in the assay on WM1745 amounted to 82.8%; with WM3526, 70.3%; in the assay on WM3619, 77.4%; in the assay with WM451Lu, 112%.
As to `COc1ccc(COc2ccc(Cc3cnc(N)nc3N)cc2OC)cc1` + CC(C)CCN1c2nc(Nc3cc(F)c(O)c(F)c3)ncc2N(C)C(=O)C1C [BID1870] (first compound 5 µM, partner dose 1 µM), the cell count in the assay with SkMel30 stood at 90.8%; with SkMel5 it was 56.3%; in the assay on UACC257 it was 91.5%; in the assay with UACC62, 75%; in the assay on WM115, 109%; with WM1716 it was 87.9%. The cell count came out at 84% with WM1745, 72.1% with WM3526, 63.1% with WM3619 and 81.5% in the assay with WM451Lu.
